# Data: PMC6919601, “Identification of Plasmodium dipeptidyl aminopeptidase allosteric inhibitors by high throughput screening” (PLoS ONE, 2019)
# About 230 (0.21%) of roughly 110,000 compounds showed an effect of 50% or more. The list shows a part of the results.
# Biological target: DPAP1 (Plasmodium falciparum, UniProt Q8IIJ9)
# Assay: primary screen, percent inhibition; read by cleavage of a fluorogenic dipeptide substrate; higher = more effect of the substance
# Design: species or system P. falciparum D10 trophozoite lysates; single well
# 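Note: 30 min substrate incubation versus DMSO and 10 µM JCP410 controls.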
# Sequence of DPAP1 (Q8IIJ9 whole entry, looked up): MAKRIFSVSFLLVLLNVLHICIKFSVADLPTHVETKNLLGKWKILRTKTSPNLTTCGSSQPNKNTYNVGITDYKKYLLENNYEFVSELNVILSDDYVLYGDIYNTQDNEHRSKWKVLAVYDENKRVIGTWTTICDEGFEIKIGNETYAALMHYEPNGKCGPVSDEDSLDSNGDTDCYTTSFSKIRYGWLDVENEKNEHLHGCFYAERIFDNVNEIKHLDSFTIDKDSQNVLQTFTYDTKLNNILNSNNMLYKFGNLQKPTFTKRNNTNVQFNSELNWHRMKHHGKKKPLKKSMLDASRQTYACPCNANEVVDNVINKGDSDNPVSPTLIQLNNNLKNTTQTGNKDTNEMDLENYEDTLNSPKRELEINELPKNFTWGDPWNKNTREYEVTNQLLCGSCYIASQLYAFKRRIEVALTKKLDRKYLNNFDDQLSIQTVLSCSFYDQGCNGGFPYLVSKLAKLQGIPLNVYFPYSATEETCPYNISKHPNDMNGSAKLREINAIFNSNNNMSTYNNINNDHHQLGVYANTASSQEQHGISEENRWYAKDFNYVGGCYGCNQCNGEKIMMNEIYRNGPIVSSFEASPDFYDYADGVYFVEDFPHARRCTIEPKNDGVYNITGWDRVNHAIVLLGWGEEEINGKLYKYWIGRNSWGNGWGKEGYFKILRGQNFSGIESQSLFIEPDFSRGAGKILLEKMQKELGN
row,Structure (SMILES),% Inhibition @ 10 uM [%]
1,COc1ccc(NC(=O)c2cc3c([nH]c4ccccc43)c(C)n2)cc1,3.83
2,C=CCNC1CC(=O)N(c2ccc(CC)cc2)C1=O (stereo not drawn),-12.3
3,CCn1c(SCC(=O)Nc2nc(C)cs2)nc2c(c1=O)SCC2,1.39
4,CN(C)/C=N/C1=NN(c2cccc(C(F)(F)F)c2)CC1,26.5
5,COc1ccccc1C1=NC(=O)CS1,0.878
6,O=C(NCCN1CCOCC1)C1CCN(c2ncnc3c2sc2cccc(F)c23)CC1,-4.15
7,CC(C)C[C@H](NC(=O)OCc1ccccc1Cl)C(=O)NCC#N,-3.04
8,CCOc1ccc(C(=O)CSc2nc3ccccc3o2)cc1[N+](=O)[O-],4.89
9,Cc1cc(C)n(CC(O)Cn2c3ccccc3c3ccccc32)c(=O)n1 (stereo not drawn),80.2
10,FC(F)(F)c1ccccc1CN1CCN(c2ccccn2)CC1,2.23
11,Cc1ccc(S(=O)(=O)N2CCCC2)cc1[N+](=O)[O-],-6.82
12,O=S(=O)(c1ccc(NCc2ccccc2)c(S(=O)(=O)N2CCCCC2)c1)N1CCCCC1,2.44
13,OCCN1CCN(Cc2ccc3c(c2)OCO3)CC1,-2.12
14,O=C1NC(=O)N(Cc2ccccc2)C(=O)/C1=C\c1ccc(SCc2ccco2)o1,2.14
15,CC(Sc1nc(-c2ccccc2)c(-c2ccccc2)[nH]1)C(=O)O (stereo not drawn),-3.04
16,CC(C)C[C@H](NC(=O)c1ccc(-c2cnc(N(C)C)s2)cc1)C(=O)NCCN(CC(C)C)CC(C)C,13.8
17,CCC(Cc1ccccc1)NC(=O)C1=C(C)C(=O)OC12CCCCC2 (stereo not drawn),-5.58
18,CCN(CC)S(=O)(=O)c1cccc(C(=O)Nc2cc(C)on2)c1,-2.15
19,N#C/C(=C\c1ccccc1[N+](=O)[O-])c1nc(-c2ccc(Cl)c(Cl)c2)cs1,-10.1
20,Cc1nc2ccc3ccccc3c2c(O)c1C/C=C/Cl,-1.32
21,Cc1c(Cl)cccc1NC(=O)c1ccc(OCC(=O)NCc2ccccc2)cc1,-5.81
22,Cc1sc(C2C(C#N)=C(N)OC3=C2C(=O)CC(C)(C)C3)cc1COc1ccccc1Br (stereo not drawn),1.43
23,COc1cc(CNCc2ccccc2)cc(Cl)c1OCc1cccs1,4.85
24,O=C(CCNS(=O)(=O)c1cccc2nonc12)NCc1ccccc1Cl,1.26
25,Cc1ccc(S(=O)(=O)N2CCC(C(=O)NCCCN3CCCCCC3)CC2)cc1,0.387
26,COc1ccc(/C(C)=N/OCc2nc3c4c5c(sc4ncn3n2)CCCCC5)cc1OC,-11.3
27,N#CSCC(=O)N1c2ccccc2Sc2ccccc21,10.6
